T1: human OX40 (human, UniProt P43489 29-214)
T1 chain: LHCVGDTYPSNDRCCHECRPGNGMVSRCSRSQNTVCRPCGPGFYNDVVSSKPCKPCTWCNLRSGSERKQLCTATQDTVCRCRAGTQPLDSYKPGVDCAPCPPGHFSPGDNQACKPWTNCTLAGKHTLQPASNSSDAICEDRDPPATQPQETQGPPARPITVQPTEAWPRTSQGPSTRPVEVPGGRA

B1: Anti-PD-L1-OX40 Ab-V8 (bispecific antibody)
heavy: QVQLVQSGAEVKKPGSSVKVSCKASGGTFRRYSISWVRQAPGQGLEWMGGIIPVFGAAKYAQKFQGRVTITADEFTSTAYMELSSLTSEDTAVYYCALSGDSDAFDIWGQGTMVTVSSASTKGPSVFPLAPCSRSTSESTAALGCLVKDYFPEPVTVSWNSGALTSGVHTFPAVLQSSGLYSLSSVVTVPSSSLGTKTYTCNVDHKPSNTKVDKRV[letters of human IgG4 Fc with S228P (EU numbers) not shown]GGGGSGGGGSYVLTQPPSVSVAPGKTARITCGGNNLESKIVSWYQQKPGQAPVLVIFYDTDRPSGIPERFSGSNSGNTATLTISRVEAGDEADYYCQVWDSNSDHVIFGGGTKLTVLGSTSGSGKPGSGEGSTKGEVQLVESGGIVVQPGGSLRLSCAASGFTFDDYTMHWVRQAPGKGLEWVSLISWDGGSTYYADSVKGRFTISRDNSKNSLYLQMNSLRTEDTALYYCASIYDPPPGSRSALDAFDIWGQGTMVTVSSA
light: QSVLTQPPSASGTPGQRVTISCSGSSSNIGSNTVNWYQQLPGTAPKLLIYSNNQRPSGVPDRFSGSKSGTSASLAISGLQSEDEADYYCATWDDSLNAWVVFGGGTKLTVLGQPKAAPSVTLFPPSSEELQANKATLVCLISDFYPGAVTVAWKADSSPVKAGVETTTPSKQSNNKYAASSYLSLTPEQWKSHRSYSCQVTHEGSTVEKTVAPTECS
B2: Anti-PD-L1-OX40 Ab-V10 (bispecific antibody)
heavy: QVQLVQSGAEVKKPGSSVKVSCKASGGTFRRYSISWVRQAPGQGLEWMGGIIPVFGAAKYAQKFQGRVTITADEFTSTAYMELSSLTSEDTAVYYCALSGDSDAFDIWGQGTMVTVSSASTKGPSVFPLAPCSRSTSESTAALGCLVKDYFPEPVTVSWNSGALTSGVHTFPAVLQSSGLYSLSSVVTVPSSSLGTKTYTCNVDHKPSNTKVDKRV[letters of human IgG4 Fc with S228P (EU numbers) not shown]GGGGSGGGGSYVLTQPPSVSVAPGQTARITCGGNNLESKIVSWYQQKPGQAPVLVIFYDTDRPSGIPERFSGSNSGNTATLTISRVEAGDEADYYCQVWDSNSDHVVFGGGTKLTVLGSTSGSGKPGSGEGSTKGEVQLVESGGGVVQPGGSLRLSCAASGFTFDDYTMHWVRQAPGKGLEWVSLISWDGGSTYYADSVKGRFTISRDNSKNSLYLQMNSLRTEDTALYYCASIYDPPPGSRSALDAFDIWGQGTMVTVSSA
light: B1 light
B3: Anti-PD-L1-OX40 Ab-V5 (bispecific antibody)
heavy: QVQLVQSGAEVKKPGSSVKVSCKASGGTFRRYSISWVRQAPGQGLEWMGGIIPVFGAAKYAQKFQGRVTITADEFTSTAYMELSSLTSEDTAVYYCALSGDSDAFDIWGQGTMVTVSSASTKGPSVFPLAPCSRSTSESTAALGCLVKDYFPEPVTVSWNSGALTSGVHTFPAVLQSSGLYSLSSVVTVPSSSLGTKTYTCNVDHKPSNTKVDKRV[letters of human IgG4 Fc with S228P (EU numbers) not shown]GGGGSGGGGSYELTQPPSVSVTPGQTARIACGGNNLESKIVSWYQQKPGQAPVLVIFYDTDRPSGISERFSGSNSGNTATLTISRVEAGDEADYYCQVWDSNSDHVIFGGGTKLTVLGSTSGSGKPGSGEGSTKGEVQLVESGGVVVQPGGSLRLSCAASGFTFDDYTMHWVRQAPGKGLEWVSLISWDGGSTYYADSVKGRFTISRDNSKNSLYLQMNSLRTEDTALYYCASIYDPPPGSRSALDAFDIWGQGTMVTVSSA
light: B1 light
B4: Anti-PD-L1-OX40 Ab-V11 (bispecific antibody)
heavy: QVQLVQSGAEVKKPGSSVKVSCKASGGTFRRYSISWVRQAPGQGLEWMGGIIPVFGAAKYAQKFQGRVTITADEFTSTAYMELSSLTSEDTAVYYCALSGDSDAFDIWGQGTMVTVSSASTKGPSVFPLAPCSRSTSESTAALGCLVKDYFPEPVTVSWNSGALTSGVHTFPAVLQSSGLYSLSSVVTVPSSSLGTKTYTCNVDHKPSNTKVDKRV[letters of human IgG4 Fc with S228P (EU numbers) not shown]GGGGSGGGGSYVLTQPPSVSVTPGETARIACGGNNLESKIVSWYQQKPGQAPVLVIFYDTDRPSGISERFSGSNSGNTATLTISRVEAGDEADYYCQVWDSNSDHVIFGGGTKLTVLGSTSGSGKPGSGEGSTKGEVQLVESGGVVVQPGGSLRLSCAASGFTFDDYTMHWVRQAPGKGLEWVSLISWDGGSTYYADSVKGRFTISRDNSKNSLYLQMNSLRTEDTALYYCASIYDPPPGSRSALDAFDIWGQGTMVTVSSA
light: B1 light
B5: Anti-PD-L1-OX40 Ab-V4 (antibody)
chain 1: QVQLVQSGAEVKKPGSSVKVSCKASGGTFRRYSISWVRQAPGQGLEWMGGIIPVFGAAKYAQKFQGRVTITADEFTSTAYMELSSLTSEDTAVYYCALSGDSDAFDIWGQGTMVTVSSASTKGPSVFPLAPCSRSTSESTAALGCLVKDYFPEPVTVSWNSGALTSGVHTFPAVLQSSGLYSLSSVVTVPSSSLGTKTYTCNVDHKPSNTKVDKRV[letters of human IgG4 Fc with S228P (EU numbers) not shown]GGGGSGGGGSYVLTQPPSVSVTPGKTARIACGGNNLESKIVSWYQQKPGQAPVLVIFYDTDRPSGISERFSGSNSGNTATLTISRVEAGDEADYYCQVWDSNSDHVIFGGGTKLTVLGSTSGSGKPGSGEGSTKGEVQLVESGGVVVQPGGSLRLSCAASGFTFDDYTMHWVRQAPGKGLEWVSLISWDGGSTYYADSVKGRFTISRDNSKNSLYLQMNSLRTEDTALYYCASIYDPPPGSRSALDAFDIWGQGTMVTVSSA
chain 2: B1 light

What follows are binders tested against human PD-L1 (human, UniProt Q9NZQ7 part only) (assay: ELISA).
Sequence of UniProt Q9NZQ7 (Q9NZQ7 19-238): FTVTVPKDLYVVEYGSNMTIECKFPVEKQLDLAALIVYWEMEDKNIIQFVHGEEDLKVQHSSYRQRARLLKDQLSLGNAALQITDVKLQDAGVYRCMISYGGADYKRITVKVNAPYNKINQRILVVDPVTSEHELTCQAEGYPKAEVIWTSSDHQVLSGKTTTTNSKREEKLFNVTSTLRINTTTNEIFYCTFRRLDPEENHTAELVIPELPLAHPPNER

Row | Binder | EC50
1 | B1 | 152 pM
2 | B2 | 140 pM
3 | B3 | 156 pM
4 | B4 | 168 pM
5 | B5 | 144 pM

Molecular target: T1, human OX40
Assay: ELISA

Row | Binder | EC50
6 | B1 | 128 pM
7 | B2 | 235 pM
8 | B3 | 125 pM
9 | B4 | 134 pM
10 | B5 | 128 pM

Reference: patent publication US20250346678A1 (published 2025)
